Among the data in PMC10668032 are binding signal values, retold here.

Some of the results follow. At the low end of the ranking, values are background and their order means little.

The target of this experiment is SIX1 homeodomain (reference allele) (UniProt Q15475). As to the kind of experiment: universal protein binding microarray. The conditions noted are these: Universal all-10-mer PBM (8x60K, AMADID 030236), 300 nM GST-tagged protein, Alexa Fluor 488 anti-GST; buffer, salt, pH and temperature not stated; high values mean tight binding; most listed sequences are background and not binding sites; double strand, one strand shown.
Consider CTGGGGCC, for which the binding signal was found to be 0.0514 E-score.

As to ATTCGTGC, the binding signal is -0.123 E-score. For GATACAAA, the binding signal amounted to 0.252 E-score.

Turning to GGTCTTGA, the binding signal is -0.035 E-score.

For the sequence ATATCGCA, the binding signal came out at 0.42 E-score.

As to CGAAAGGC, the binding signal is -0.226 E-score. For the sequence GTCTGAGA, the binding signal is -0.021 E-score. Consider AGCGAACA, for which the binding signal is -0.107 E-score. With AGCCTCCG, the binding signal is -0.0318 E-score.

For AGTACTTA, the binding signal was -0.22 E-score. For ACGCTATA, the binding signal is -0.0146 E-score. With ACTTTGCC, the binding signal is -0.183 E-score. The result for AAGGATAT reads 0.365 E-score; that for CTATCTGC, 0.19 E-score.

For CCCTATAC, the binding signal worked out at 0.271 E-score. For GACAAATA, the binding signal was -0.0816 E-score. In the case of AATCTCTA, the binding signal worked out at 0.0606 E-score. For the sequence CACCGCTA, the binding signal was -0.0119 E-score.

For the sequence ATTTCACA, the binding signal is -0.0231 E-score.

As to GCGTCGAC, the binding signal amounted to 0.017 E-score. Regarding ATATTACA, the binding signal stood at 0.266 E-score. Consider CTCCCCTC, for which the binding signal was 0.069 E-score. On to AGATCAAT, for which the binding signal is 0.383 E-score. As to GACTTGTA, the binding signal was -0.033 E-score.

AATGACGG: the binding signal was -0.168 E-score. The result for GACAGAGA reads -0.104 E-score; that for CAAGTATG, -0.0542 E-score.

Take CCTCGGAA: the binding signal amounted to 0.0957 E-score. As to CAGATACG, the binding signal came out at 0.334 E-score. Turning to AACTACTT, the binding signal is -0.102 E-score. The result for CGATCGGC reads 0.18 E-score; that for AGATCAAC, 0.264 E-score; that for AACCGGTC, -0.171 E-score.

With CGCAAACC, the binding signal was 0.0504 E-score. TAGGAAAA: the binding signal is -0.167 E-score.

Consider GCGCTGAA, for which the binding signal is -0.324 E-score. As for AAGTGGTG, the binding signal was determined as 0.109 E-score. AAGACGCA: the binding signal is -0.0798 E-score. Take GTCTGCCA: the binding signal was -0.16 E-score. As for AGAGTATA, the binding signal stood at 0.262 E-score.

For the sequence AGTCAGTG, the binding signal amounted to 0.00155 E-score.

For the sequence CACTTTTA, the binding signal was -0.266 E-score.

Take ATGAGTAC: the binding signal is -0.0324 E-score.

With CCCCTCCG, the binding signal was 0.129 E-score.

GGCACTAC: the binding signal was -0.24 E-score. Take GACCATGA: the binding signal was determined as 0.216 E-score. Regarding ATTTGACA, the binding signal came out at 0.000975 E-score.

AGCAGGAC: the binding signal is -0.142 E-score. In the case of AATTAACC, the binding signal was -0.0197 E-score. Turning to AGGTCGAT, the binding signal is 0.133 E-score.

Consider GTAGATAC, for which the binding signal was determined as 0.289 E-score. As for GAAATCAA, the binding signal was -0.36 E-score. To CGAGCGCG belongs -0.128 E-score; to ACCGCGCT, -0.218 E-score.

For AGTCGGAG, the binding signal is -0.171 E-score. For ACAACTGT, the binding signal was -0.223 E-score. To ACCTCCCC belongs 0.0354 E-score. As for CAAGAAAA, the binding signal amounted to 0.0158 E-score. The result for AAGAGATT reads -0.146 E-score; that for GAATTAGC, -0.201 E-score. For the sequence CGTGGATC, the binding signal stood at 0.293 E-score. The result for GGGGGTAA reads 0.128 E-score; that for GTTCTCGA, -0.168 E-score. The result for CATCAACA reads 0.0129 E-score; that for GAGAGCAC, 0.0376 E-score; that for CCTTGCTA, -0.0776 E-score.

As to ATGCAGCG, the binding signal is -0.23 E-score. Regarding CGCCCTTC, the binding signal was -0.11 E-score. Take GCGCTTCA: the binding signal was -0.261 E-score. To ATCTGTCC belongs 0.29 E-score; to CCGCCGCG, 0.101 E-score. As to TGACCTAA, the binding signal is -0.0497 E-score.

On to GTATGGTA, for which the binding signal turned out to be 0.234 E-score. As for CCGCGACG, the binding signal was -0.0756 E-score.

As to AAGGCGGA, the binding signal turned out to be 0.04 E-score. For CAAAATGG, the binding signal is -0.149 E-score.

Consider GTACACGA, for which the binding signal stood at 0.165 E-score. Turning to AACCTAAT, the binding signal is -0.00121 E-score. Turning to GAAAGTCC, the binding signal was -0.267 E-score.

GATCCGGC: the binding signal is 0.393 E-score. For AGCGCGAG, the binding signal is -0.147 E-score.

CAAGAAGA: the binding signal stood at 0.0904 E-score. To CGATTTCA belongs -0.105 E-score; to AGCTTGGG, -0.116 E-score; to CACTTGCG, -0.0273 E-score. The result for ACAGGAAT reads -0.277 E-score; that for CCTGCTTC, -0.0441 E-score. The result for CGGAAACC reads -0.0611 E-score; that for ATCGTCGA, 0.0943 E-score; that for CGTGGCCA, -0.237 E-score.

For the sequence CTCCCATC, the binding signal came out at 0.051 E-score.

Turning to CGCTTAAA, the binding signal is -0.164 E-score. To AGTCGACA belongs -0.00172 E-score; to CTGGCGTA, 0.0849 E-score; to ACGCCTCC, -0.1 E-score. Turning to TCAATAAA, the binding signal was -0.105 E-score. The result for ATACCAGG reads 0.377 E-score; that for ATCCTCAG, 0.258 E-score.

Turning to GCTGATAA, the binding signal is 0.118 E-score. CTCCCTCC: the binding signal was -0.0323 E-score.

For ATGTTAGA, the binding signal was -0.0524 E-score. Take CAAAAAAC: the binding signal was -0.218 E-score. For the sequence GCCGGAAA, the binding signal was -0.0388 E-score.

ACGTAACG: the binding signal is -0.15 E-score. As for GACAACGA, the binding signal was -0.131 E-score. On to CATGGAGG, for which the binding signal amounted to 0.0136 E-score. For GTACGTCA, the binding signal is -0.059 E-score. For the sequence ATGTGACG, the binding signal was -0.0542 E-score. Turning to AGGATAGG, the binding signal came out at 0.306 E-score. To CGGATGAA belongs 0.0999 E-score. Take AGGCTGTG: the binding signal was -0.157 E-score. The result for ACAAACCC reads -0.0123 E-score; that for GTCGTATA, 0.186 E-score. The result for AACATTAA reads -0.156 E-score.

For the sequence CCTACTCG, the binding signal was -0.0646 E-score. The result for CAACCCGG reads 0.112 E-score; that for AGGCACGG, -0.183 E-score. With ACGAAGTA, the binding signal stood at 0.109 E-score. As for ACTTATCA, the binding signal was 0.0176 E-score. For CCGCGCCC, the binding signal was -0.00901 E-score. The result for GTGACCAC reads -0.0486 E-score; that for GTATCCAA, 0.421 E-score. In the case of GCTGTCCA, the binding signal was -0.202 E-score.

As to AGCCCGTA, the binding signal is -0.097 E-score. As to AAGAACAT, the binding signal is -0.163 E-score.

Consider CGGGTCTC, for which the binding signal came to 0.187 E-score. For the sequence GGGATCCA, the binding signal was 0.375 E-score. Consider AATCACGA, for which the binding signal is -0.0602 E-score.

Turning to AGTAAAGG, the binding signal was -0.197 E-score.

Take CCATGATC: the binding signal came to 0.293 E-score. Regarding CATGGCAG, the binding signal is 0.0147 E-score. To AATTAGCG belongs -0.231 E-score; to CCTCCATA, -0.00502 E-score. As to CATCGGCA, the binding signal was 0.0581 E-score. The result for TGTGCCAA reads -0.0281 E-score. For CAGACACA, the binding signal is -0.0664 E-score.

For the sequence AGGCCTGG, the binding signal was -0.237 E-score.

ATAGTTAG: the binding signal is -0.0308 E-score. Regarding ACTACAGG, the binding signal came to 0.0531 E-score. Consider ACCAGTCG, for which the binding signal is 0.0056 E-score. To CGGACGGA belongs -0.153 E-score. Take GCTATGAA: the binding signal is -0.0104 E-score. Turning to CATATCAG, the binding signal was found to be 0.436 E-score. On to GGGCAGAA, for which the binding signal worked out at 0.00345 E-score. For the sequence AAGTGAAC, the binding signal is -0.132 E-score.

ATCCCCGC: the binding signal stood at 0.326 E-score. On to AGTGTCTG, for which the binding signal is -0.00382 E-score. The result for ACTGCAGT reads -0.408 E-score. For the sequence ACCTGCAT, the binding signal was -0.0571 E-score.

As to AACATTTC, the binding signal is -0.362 E-score. As to AAGGAGGA, the binding signal was found to be 0.0368 E-score. For the sequence GAGCGCTA, the binding signal was -0.0992 E-score. To CCGCTACA belongs -0.0333 E-score; to AATAGTTC, -0.336 E-score; to GGTGTGTA, 0.108 E-score. Regarding GACCGAAC, the binding signal is -0.142 E-score. As to GTTCGCCA, the binding signal is -0.204 E-score.

Turning to ATCCCCGA, the binding signal was 0.368 E-score. To AGAGCGCG belongs -0.204 E-score. For the sequence TCGATTCA, the binding signal is -0.0542 E-score. For AATTGATG, the binding signal is -0.137 E-score. For ATTATTTC, the binding signal is -0.0207 E-score. Consider CAGCGTTC, for which the binding signal was -0.276 E-score. As for ATACCCGC, the binding signal came out at 0.379 E-score. As to CCCACCGG, the binding signal is 0.0358 E-score. For the sequence CGGGCTAA, the binding signal was -0.0753 E-score. The result for CCTAGCTC reads -0.0541 E-score; that for TACGGAAA, -0.214 E-score. Turning to CTCGATTC, the binding signal is -0.0382 E-score. In the case of ACTAAGCC, the binding signal is -0.107 E-score. Consider CATTGTGC, for which the binding signal was -0.194 E-score. As for CTCAGCGA, the binding signal came out at 0.139 E-score.
